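Growth conditions: 96-well plates. Treatment: test compound, 48 hours, 5 concentrations. Analysis: linear interpolation between bracketing concentrations; unreached endpoints set to highest concentration. Here, GI50 denotes the concentration required for 50% inhibition of growth.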 Active and inactive are the calls of the source. Rule as the data show it: active = GI50 up to about 1.1 µM and inactive = higher.

This assay concerns NCI-H322M. In words: growth of human tumour cells (NCI), 48 h.
Take `O=C(O)CCCOc1cc(-c2ccccc2F)nc2cc3c(cc12)OCO3`: the GI50 was inactive: 22.8 µM.

For the compound `O=C1NNC(=O)c2ccccc2SSc2ccccc2C(=O)NNC(=O)c2ccccc2SSc2ccccc21`, the GI50 is inactive: 27.5 µM.

Take `Clc1ccccc1NN(Cc1ccccn1)c1ccccc1Cl`: the GI50 is inactive: 22.4 µM. The value for `CC1(C)C(=O)C2(OS(=O)(=O)C(F)(F)F)CCC1C2` (stereo not drawn) was inactive: > 100 µM; that for `COC(=O)C(Cc1ccc(Oc2cc(CC(NC(=O)c3ccccc3)C(=O)OC)ccc2OC)cc1)NC(=O)c1ccccc1` (stereo not drawn) was inactive: 23.6 µM. The value for `O=C1c2ccccc2C(=O)C12CCc1ccccc12` was inactive: > 100 µM. In the case of `CO/N=C1/C(n2[nH]c(=O)n(-c3ccccc3)c2=O)C2C=CC1n1c(=O)n(-c3ccccc3)c(=O)n12` (stereo not drawn), the GI50 is inactive: > 100 µM. In the case of `COc1ccc(C2(Cl)C(Cl)(C(F)(F)F)C2(Cl)C(F)(F)F)cc1` (stereo not drawn), the GI50 was inactive: 16.2 µM. `Oc1nc(S)nc2nc3c4cccnc4c4ccccc4c3nc12`: the GI50 is inactive: > 100 µM. In the case of `COC12CC(O)=C(C(C)=O)C(=O)C1(C)c1c(OC(C)=O)c(C)c(O)c(C(C)=O)c1O2` (stereo not drawn), the GI50 was inactive: 13.2 µM. As to `C/C=C(\C)CC/C=C/CO[Si](C)(C)C(C)(C)C`, the GI50 was inactive: > 100 µM. With `C1CCN(c2nsc(N3CCCCC3)n2)CC1`, the GI50 was inactive: > 100 µM. The value for `COC(=O)/C=C1/OC(c2ccccc2)=C(C)C1=O` was inactive: 17.7 µM; that for `COC1CC(OC)C(O)C(CO)O1` (stereo not drawn) was inactive: > 100 µM; that for `COC(=O)/C(C#N)=C1\CCC(OC)N1C` (stereo not drawn) was inactive: > 100 µM. In the case of `Cc1ccc2c(c1)nc(N)n[n+]2[O-]`, the GI50 is inactive: > 100 µM. As for `CN(C)C1(C(=O)O)CC1`, the GI50 was inactive: > 100 µM.

Take `COc1nc(-c2c[nH]c3ccccc23)cnc1N`: the GI50 is inactive: 35.7 µM. On to `N#Cc1nc(Nc2ccc(Cl)cc2)sc1N`, for which the GI50 was inactive: 36.8 µM. Regarding `CN(C(=O)C1=CCCCCC1)c1ccccc1I`, the GI50 is inactive: 39.4 µM. The value for `O=P1(C(O)c2ccccc2)N(Cc2ccccc2)[C@@H]2CCCC[C@H]2N1Cc1ccccc1` (stereo partly drawn) was inactive: 31 µM. With `CCOC(=O)/C=C(/C(=O)OCC)n1c(=O)c(C)cn(C2CC(N=[N+]=[N-])C(CO)O2)c1=O` (stereo not drawn), the GI50 was inactive: 69 µM.

In the case of `NC(CCSCC(F)F)C(=O)O` (stereo not drawn), the GI50 is inactive: > 100 µM.

As for `Cn1c2c(c3c(=O)[nH]ncc31)Cc1ccccc1-2`, the GI50 was inactive: 10.9 µM. The value for `O=c1[nH]c(=O)n(C2OC(CO)C(O)C2O)c2ccsc12` (stereo not drawn) was inactive: > 100 µM; that for `Cc1ccc2c(=O)c(-c3nnsn3)c[nH]c2n1` was inactive: > 100 µM; that for `C[n+]1c2ccc(Cl)cc2nc2cc(-c3ccccc3)ccc21` was inactive: 1.84 µM. With `O=C1C(Cl)N(c2cccc(Cl)c2)C1c1c[nH]c2ccccc12` (stereo not drawn), the GI50 was inactive: > 100 µM. As to `CC(=O)N1CCc2[nH]c3ccccc3c2CC1`, the GI50 is inactive: > 100 µM. The value for `Cc1cc2nc(C=C(C(F)(F)F)C(F)(F)F)sc2cc1C` was inactive: 2.13 µM; that for `COc1ccccc1-c1cc(=O)c2ccccc2n1C1CC1` was inactive: 1.45 µM; that for `C[C@]12CC[C@H]3[C@@H](CCC4=C[C@@H](N5CCCC5)CC[C@@]43C)[C@@H]1C/C(=C\c1ccncc1)[C@@H]2O` was inactive: 12.5 µM. Take `IC[P+]1(c2ccccc2)CCCC1`: the GI50 is inactive: 23.7 µM. As to `c1ccc(C(CCN2CC3CCC(CC3)C2)c2ccccc2)cc1`, the GI50 was inactive: 38.9 µM. Consider `O=C(Nc1cccc([N+](=O)[O-])c1)/C(=N\NC(=O)c1ccncc1)c1nc2ccc([N+](=O)[O-])cc2nc1O`, for which the GI50 was inactive: > 100 µM. Consider `O=C1c2c(Br)sc(Br)c2C(NC(=O)C(F)(F)F)C1O` (stereo not drawn), for which the GI50 was inactive: 20.6 µM. The value for `CCOC(=O)NC(Nc1cccc(C(F)(F)F)c1)(C(F)(F)F)C(F)(F)F` was inactive: > 100 µM; that for `CCCP1(=O)C=C(C)C(=C(Cl)Cl)C(C)=C1` (stereo not drawn) was inactive: 49.9 µM; that for `Cc1ccc(S(=O)(=O)n2ccn3c(=O)cc(C)nc23)cc1` was inactive: > 10 µM.

As for `CC/C(C)=C1\CCC(CN(C)C)C1=O` (stereo not drawn), the GI50 is inactive: > 100 µM. Turning to `CCC1C(=O)C(O)[C@H]2[C@@H]3C(O)CC4=CC(=O)CC[C@]4(C)[C@H]3CC[C@]12C` (stereo partly drawn), the GI50 is inactive: > 50 µM. The value for `CC(C)(C)CI` was inactive: 42 µM; that for `COc1ccc(C(=O)/C=C/c2ccc(OCCSCCCCCCCCCCSCCOc3ccc(/C=C/C(=O)c4ccc(OC)c(OC)c4)cc3)cc2)cc1OC` was inactive: > 100 µM; that for `OC1CCN(c2c3ccccc3nc3ccccc23)CC1` was inactive: 27.1 µM. As for `CC1CN(c2ccc(Cl)cc2)CC(C)OC(=O)O1` (stereo not drawn), the GI50 is inactive: > 100 µM. Consider `Cc1n[nH]c(=O)n1/N=C/c1ccco1`, for which the GI50 is inactive: > 100 µM. The value for `CCOC(=O)C1CSCCSC1` was inactive: > 100 µM; that for `COC(=O)c1cccc(C)c1C1CN=NC12Cc1c(ccc(C)c1C)C2=O` (stereo not drawn) was inactive: 75.2 µM; that for `Oc1ccc2ccccc2c1/N=N\c1cccc2ccccc12` was inactive: > 100 µM. As to `Cc1c2c3cc(O)ccc3nc-2n(C)c2ccccc12`, the GI50 is inactive: 1.65 µM. For the compound `Cc1nc2ccccc2c(=O)n1NC(=O)c1ccc(CS)cc1`, the GI50 was inactive: 47.8 µM. In the case of `COc1ccc(/C=C2\N/C(=N/N)N=C2Cl)cc1`, the GI50 was inactive: > 100 µM. The value for `Cc1cc(OCc2nn(CN3CCN(C)CC3)c(=S)n2/N=C/c2ccc(-c3ccc(Cl)cc3Cl)o2)ccc1Cl` was inactive: 77.6 µM; that for `CC(=O)N1C(OC(C)C)CC(C)N1c1ccccc1` (stereo not drawn) was inactive: > 10 µM; that for `CN(C)CCN1C(=O)CC[C@@]2(C)C1=CC[C@@H]1[C@@H]2CC[C@@]2(C)[C@H]1CC[C@]2(C)O` was inactive: > 100 µM. Turning to `CCOC(=O)c1csc(CCCCCCc2nc(C(=O)OCC)cs2)n1`, the GI50 is inactive: > 100 µM.

`O=[N+]([O-])c1ccc(N2N=C(c3c(O)ccc4ccccc34)CC2c2ccc(Cl)cc2)c([N+](=O)[O-])c1` (stereo not drawn): the GI50 is inactive: 22.2 µM. Consider `COC1OC2COC(c3ccccc3)OC2C(OC(=S)c2ccccc2)C1O` (stereo not drawn), for which the GI50 was inactive: 23.3 µM. As to `CC1=N[C@@](C)(C2CC3C=CC2C3=O)COC1=O` (stereo partly drawn), the GI50 is inactive: > 100 µM. For `CC(C)C1CC(CO)(CNc2nc(N)nc(Cl)c2C=O)C1` (stereo not drawn), the GI50 was inactive: 4.89 µM. For the compound `Cc1ccc(Cc2n[nH]c(=O)[nH]2)cc1`, the GI50 was inactive: > 100 µM. Consider `Brc1ccccc2cc(-c3ccccc3)nc1-2`, for which the GI50 is inactive: 14.7 µM. Take `Cc1ccc(NC(=O)CCC/C(CC(=O)c2ccc(Br)cc2)=N/NC(=O)CC#N)cc1`: the GI50 is inactive: > 100 µM. Regarding `CCCCCCCCCCCCC(O)C1CCC(C(O)CCCCCCC(O)CCCCCCCC2=CC(C)OC2=O)O1` (stereo not drawn), the GI50 is inactive: 53.7 µM.

Regarding `CO/N=C(\C)c1cccc(Nc2nc3ccccc3c3occc23)c1`, the GI50 was inactive: 13.6 µM.

For `O=C(NCCO)c1c(O)c2ccccc2[nH]c1=O`, the GI50 was inactive: > 100 µM. With `CC(=O)N1CC(=O)NC1=S`, the GI50 was inactive: > 100 µM. As to `Cc1c2c(OCC(O)CN3CCN(c4ccccc4)CC3)nn(C)c(=O)c2c(C)n1-c1ccccc1` (stereo not drawn), the GI50 is inactive: 39.6 µM. As to `Cc1cccc(C)c1NC(=O)CCc1nnc2s/c(=C\c3ccc(Cl)cc3)c(=O)n12`, the GI50 was inactive: > 100 µM.

For `O=[PH](O)c1ccccn1`, the GI50 was inactive: > 100 µM. Consider `C[C@@]12C=CC3C/C(=N\C(N)=S)C=C(CCCC4OCCO4)[C@]3(CC1)C2` (stereo partly drawn), for which the GI50 is inactive: 15.1 µM.

With `Cc1cc2c(c(S(=O)(=O)c3ccccc3[N+](=O)[O-])c1)NCCC2`, the GI50 was inactive: > 100 µM. For the compound `CCOc1ccccc1NC(=O)CCc1nnc2s/c(=C\CCc3ccccc3)c(=O)n12`, the GI50 was inactive: > 100 µM. On to `CC(=O)O[C@H]1CC[C@@]2(C)C(=CC[C@@H]3[C@@H]2CC[C@]2(C)C(=N/O)/C(=C/c4ccc([N+](=O)[O-])cc4)C[C@@H]32)C1`, for which the GI50 was inactive: 17 µM. As for `CC(=O)c1cccc(NC2C(N)C(NC(=O)N(C)C)(C(C)O)C(C)(O)C2(O)COC(=O)c2c(C)cccc2O)c1` (stereo not drawn), the GI50 was active: 0.0124 µM. For the compound `CO[C@]12C#CC=CC#C[C@@H](O)[C@]3(CCC1)O[C@@]23c1cccc(O)c1`, the GI50 was inactive: > 100 µM. On to `COC1CCCc2c(OC(C)=O)ccc(OC(C)=O)c21` (stereo not drawn), for which the GI50 was inactive: > 100 µM.

For the compound `COc1ccc(N2CCOCC2)cc1`, the GI50 was inactive: > 100 µM. As for `COC(=O)/C(C#N)=C1\NC(=O)CC(c2ccccc2)C1C#N` (stereo not drawn), the GI50 was inactive: > 100 µM. On to `O=[N+]([O-])c1ccc(/C=N/n2c(CO)nc3ccccc32)o1`, for which the GI50 is inactive: 10.5 µM. For `COC(=O)C1=C(O)C(O)=C(C(=O)OC)C1`, the GI50 was inactive: > 100 µM. As for `COc1ccc2cc3n(c(=O)c2c1)CCc1c-3cc(OC)c(OC)c1OC`, the GI50 was inactive: > 100 µM.

In the case of `COc1ccc(/C=C2\CN(C)Cc3c2nc(O)c(C#N)c3-c2ccc(OC)cc2)cc1`, the GI50 is inactive: > 100 µM. Turning to `NC(=O)c1cccc([N+](=O)[O-])c1`, the GI50 was inactive: > 100 µM. For the compound `C=C1C(NC)CCC23CC24CCC2(C)C(C(C)=O)C(O)CC2(C)C4CCC13` (stereo not drawn), the GI50 is inactive: > 100 µM.

Consider `Brc1cccc[n+]1-c1ccc2cc(-[n+]3ccccc3Br)ccc2c1`, for which the GI50 is inactive: > 100 µM.

Regarding `N=c1nc2n(cc1F)[C@@H]1O[C@H](CO)[C@@H](O)[C@@H]1O2`, the GI50 was inactive: > 100 µM. The value for `CC(=O)OC1CCCn2c1nc1c2C(=O)C(C)=C(N2CC2)C1=O` (stereo not drawn) was active: 0.53 µM.

These data come from ChEMBL document CHEMBL1201862, “PubChem BioAssay data set” (2004).
